According to PubChem BioAssay AID342 (DTP/NCI, 2004):
Certain results were filed several times, with different values. The other results are left out here. The source may hold further records. The records of an entry are repeated measurements (runs, samples, wells, individuals or studies).

Test system: Swiss mice, Sarcoma 180 sc, mean tumor weight T/C
Test: NCI In Vivo Anticancer Drug Screen. Data for tumor model Sarcoma 180 (subcutaneous) in Swiss mice
Conditions: endpoint: mean tumor weight, higher = larger tumour
Outline: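 Mice bearing transplanted tumors were treated with compound, and survival or tumor size was measured. Values are expressed as the treated-group measurement (T) divided by the vehicle-treated control measurement (C).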

[1] = dose: 83.3 mg/kg/injection, schedule: Q#A X014 (sc), vehicle: steriod suspending solution

## CC(=O)[C@H]1[C@H](C)C[C@H]2[C@@H]3CCC4=CC(=O)CC[C@]4(C)[C@@]3(F)[C@@H](O)C[C@@]21C
[1]
  T/C: 20 % of control, 39 % of control, 93 % of control
dose: 125.0 mg/kg/injection, schedule: Q#A X014 (sc), vehicle: steriod suspending solution
  T/C: 27 % of control, 30 % of control, 71 % of control

## CC(=O)OCC(=O)[C@@]1(O)CC[C@H]2[C@@H]3C[C@H](C)C4=CC(=O)C=C[C@]4(C)[C@@]3(F)[C@@H](O)C[C@@]21C
dose: 82.0 mg/kg/injection, schedule: Q01DX007 (sc), vehicle: steriod suspending solution
  T/C: 12 % of control and 61 % of control

## [N-]=[N+]=CC(=O)NCC(=O)NN
dose: 600.0 mg/kg/injection, schedule: Q01DX007 (ip), vehicle: other
  T/C: 26 % of control and 78 % of control

## CN(C)[C@@H]1C(=O)C(C(=O)NCNC(CO)(CO)CO)=C(O)[C@@]2(O)C(=O)C3=C(O)c4c(O)cccc4[C@@](C)(O)[C@H]3C[C@@H]12
dose: 320.0 mg/kg/injection, schedule: Q01DX007 (ip), vehicle: other
  T/C: 24 % of control and 52 % of control

## C/C=C1\CN(C)[C@H]2Cc3c([nH]c4ccccc34)[C@@H](c3cc4[nH]c5c(c4cc3OC)CCN3C[C@H]4C[C@H](CC)[C@H]3[C@@]5(C(=O)OC)C4)C[C@H]1C2C(=O)OC (some centres undefined)
dose: 60.0 mg/kg/injection, schedule: Q01DX007 (ip), vehicle: water
  T/C: 15 % of control, 19 % of control, 41 % of control

## O=C(CCCl)N1CCN(C(=O)CCCl)CC1
dose: 111.0 mg/kg/injection, schedule: Q#A X014 (ip), vehicle: methylcellulose (MC)
  T/C: 63 % of control, 81 % of control, 94 % of control

## CO[C@@]12[C@H](COC(N)=O)C3=C(C(=O)C(C)=C(N)C3=O)N1C[C@@H]1N[C@@H]12
dose: 1.0 mg/kg/injection, schedule: Q#A X014 (ip), vehicle: carboxymethylcellulose (CMC)
  T/C: 37 % of control and 65 % of control

## CN(C)[C@@H]1C(=O)C(C(=O)NCNC2(C(=O)O)CCCC2)=C(O)[C@@]2(O)C(=O)C3=C(O)c4c(O)cccc4[C@@](C)(O)[C@H]3C[C@@H]12
dose: 125.0 mg/kg/injection, schedule: Q01DX007 (ip), vehicle: saline
  T/C: 53 % of control and 104 % of control
dose: 250.0 mg/kg/injection, schedule: Q01DX007 (ip), vehicle: saline
  T/C: 35 % of control and 66 % of control

## CS(=O)(=O)OCCC(=O)N1CCN(C(=O)CCOS(C)(=O)=O)CC1
dose: 44.0 mg/kg/injection, schedule: Q#A X014 (ip), vehicle: methylcellulose (MC)
  T/C: 23 % of control, 43 % of control, 60 % of control
dose: 50.0 mg/kg/injection, schedule: Q01DX007 (ip), vehicle: saline
  T/C: 60 % of control and 121 % of control
dose: 100.0 mg/kg/injection, schedule: Q01DX007 (ip), vehicle: saline
  T/C: 47 % of control and 82 % of control

## O=C(O)C(=O)O.[U]
dose: 12.0 mg/kg/injection, schedule: Q01DX007 (ip), vehicle: saline
  T/C: 35 % of control and 63 % of control

## O=c1[nH]c(=O)n(C2CC(O)C(CO)O2)cc1F (centres undefined)
dose: 64.0 mg/kg/injection, schedule: Q01DX007 (ip), vehicle: carboxymethylcellulose (CMC)
  T/C: 14 % of control and 40 % of control

## CCCCNc1ncnc2c1cnn2C
dose: 16.0 mg/kg/injection, schedule: Q01DX007 (ip), vehicle: carboxymethylcellulose (CMC)
  T/C: 82 % of control and 117 % of control

## C#C[C@]1(O)CC[C@H]2[C@@H]3CCc4cc(O)ccc4[C@H]3CC[C@@]21C
[1]
  T/C: 48 % of control, 62 % of control, 75 % of control

## CCCCCCCCCCCCCCCCCC1=NCCN1CCN
dose: 33.0 mg/kg/injection, schedule: Q#A X014 (ip), vehicle: saline
  T/C: 48 % of control and 74 % of control

## CCOC(=O)C1=C(C)NC(C)=C(C(=O)OCC)C1C
dose: 62.5 mg/kg/injection, schedule: Q01DX007 (ip), vehicle: other
  T/C: 22 % of control and 53 % of control
dose: 125.0 mg/kg/injection, schedule: Q01DX007 (ip), vehicle: other
  T/C: 22 % of control, 66 % of control, 74 % of control
dose: 250.0 mg/kg/injection, schedule: Q01DX007 (ip), vehicle: other
  T/C: 9 % of control, 42 % of control, 53 % of control

## CC(O)C(NCNC(=O)C1=C(O)C2(O)C(=O)C3=C(O)c4c(O)cccc4C(C)(O)C3CC2C(N(C)C)C1=O)C(=O)O (centres undefined)
dose: 111.0 mg/kg/injection, schedule: Q#A X014 (ip), vehicle: saline
  T/C: 60 % of control and 107 % of control
dose: 166.5 mg/kg/injection, schedule: Q#A X014 (ip), vehicle: saline
  T/C: 51 % of control and 87 % of control

## CC(=O)Nc1cc2c(cc1[N+](=O)[O-])-c1ccccc1C2O (centres undefined)
dose: 222.0 mg/kg/injection, schedule: Q01DX007 (ip), vehicle: other
  T/C: 50 % of control and 82 % of control
